Description: Batch 1830-012. UPLC chromatograms for sample 1830-012 were measured in ACN or MeOH directly after preparation. The UPLC method parameters were the same as those for PEH. FIG. 1A-C are chromatograms of sample 1830-012 obtained at different points in the reaction. FIG. 1A, top panel, is the chromatogram obtained at time “0,” and confirms the presence of PEH and the azine at [M+H]^+ 135.6 and 237.7, respectively. As the reaction proceeds, the growth of the peak corresponding to the azine increases until 35 min. FIG. 1B is the chromatogram obtained in ACN after extraction (top panel) and after drying with potassium carbonate (middle panel). In both chromatograms, the signal due to the azine decreased and peak broadening was observed. FIG. 1B, bottom panel, is the chromatogram after drying, in which the signal due to PEH decreased. The chromatograms in FIG. 1C of the resultant species were obtained after 3 days storage at room temperature and −20° C. […]
Batch 1830-007. […] The results for Fr1 after distillation are shown in FIG. 17C and FIG. 17D, with the NMR results being measured at a maximum of 40 min after distillation. PEH was detected at 26% purity, and the azine was detected at 11% purity. The results for Fr2 after distillation are shown in FIG. 17E and FIG. 17F, with the NMR results being measured at a maximum of 40 min after distillation.

Compound | stability on distillation
NN=CCc1ccccc1 [PEH, phenylethylidenehydrazine] | underwent decomposition at 160-170 °C
C(/Cc1ccccc1)=N\N=C\Cc1ccccc1 [azine, (1E,2E)-1,2-bis(2-phenylethylidene)hydrazine] | underwent decomposition at 160-170 °C

— patent US20250082589A1, “PHENYLETHYLIDENEHYDRAZINE DIMERS AND METHODS OF USING SAME” (NEURAWELL THERAPEUTICS, priority 2021, published 2025)
